This is an account of results in article PMC4336329 (PLoS ONE, 2015).

In all, about 310,000 compounds went through this assay and about 2,200 (0.71%) showed an effect of 50% or more. Effects have a minus sign here. The list shows a part of the results.

The test deals with human ether-à-go-go-related gene (hERG) potassium channel (human, UniProt Q12809). The test is described as follows: primary screen, population patch clamp on CHO cells stably expressing hERG.
Sequence of human ether-à-go-go-related gene (hERG) potassium channel (Q12809 whole entry, looked up): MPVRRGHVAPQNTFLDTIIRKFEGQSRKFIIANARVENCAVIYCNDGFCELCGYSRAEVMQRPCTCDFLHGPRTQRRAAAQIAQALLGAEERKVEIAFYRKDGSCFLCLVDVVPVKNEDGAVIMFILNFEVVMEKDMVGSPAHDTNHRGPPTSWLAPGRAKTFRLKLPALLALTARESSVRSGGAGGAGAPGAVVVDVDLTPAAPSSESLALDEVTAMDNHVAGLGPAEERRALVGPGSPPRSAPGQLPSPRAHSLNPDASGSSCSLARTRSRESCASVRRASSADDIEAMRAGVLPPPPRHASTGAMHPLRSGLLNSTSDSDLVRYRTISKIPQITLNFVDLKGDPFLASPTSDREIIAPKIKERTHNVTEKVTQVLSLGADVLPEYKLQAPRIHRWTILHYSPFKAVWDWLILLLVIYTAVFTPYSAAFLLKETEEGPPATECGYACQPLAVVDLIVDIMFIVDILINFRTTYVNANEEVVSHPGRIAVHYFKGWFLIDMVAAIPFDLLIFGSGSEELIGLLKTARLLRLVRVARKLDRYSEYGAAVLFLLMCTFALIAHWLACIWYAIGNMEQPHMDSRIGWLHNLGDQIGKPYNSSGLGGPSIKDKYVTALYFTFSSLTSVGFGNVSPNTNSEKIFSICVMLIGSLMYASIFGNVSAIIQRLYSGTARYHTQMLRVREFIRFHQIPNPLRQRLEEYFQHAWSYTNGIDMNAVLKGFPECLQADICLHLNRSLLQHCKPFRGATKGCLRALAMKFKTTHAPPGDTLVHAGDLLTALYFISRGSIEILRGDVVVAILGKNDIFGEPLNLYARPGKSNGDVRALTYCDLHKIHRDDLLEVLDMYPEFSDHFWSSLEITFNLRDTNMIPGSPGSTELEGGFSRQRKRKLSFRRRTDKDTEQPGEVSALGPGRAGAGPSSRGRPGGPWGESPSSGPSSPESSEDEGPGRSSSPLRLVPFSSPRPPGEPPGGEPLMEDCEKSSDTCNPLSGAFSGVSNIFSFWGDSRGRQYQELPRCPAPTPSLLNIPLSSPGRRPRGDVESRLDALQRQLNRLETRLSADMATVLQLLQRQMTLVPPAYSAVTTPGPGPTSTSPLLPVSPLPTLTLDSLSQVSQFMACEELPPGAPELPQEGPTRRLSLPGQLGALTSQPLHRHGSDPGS
As for `Cc1ccccc1-n1c(Cn2c(=O)sc3ccccc32)nnc1SCC(=O)N1CCOCC1`, the “hERG current change (%, negative = inhibition) at 1uM” value is reported as 8.69%.

`O=C(c1ccc(CS(=O)(=O)c2ccccc2)o1)N1CCN(c2ccccc2)CC1`: the “hERG current change (%, negative = inhibition) at 1uM” value turned out to be 5.72%.

On to `COc1ccc2ccccc2c1CNC(=O)CC1C(=O)NCCN1CC(C)(C)C` (stereo not drawn), for which the “hERG current change (%, negative = inhibition) at 1uM” value amounted to 6.64%.

With `Cc1ccc(C(=O)N[C@H](C(=O)OCc2cc(=O)n3c(n2)sc2ccccc23)C(C)C)cc1`, the “hERG current change (%, negative = inhibition) at 1uM” value is 6.29%.

Consider `Brc1ccc(-c2nn3c(Cc4ccccc4)nnc3s2)o1`, for which the “hERG current change (%, negative = inhibition) at 1uM” value is 7.52%.

As for `CN(C(=O)CN1C(=O)/C(=C/c2ccccc2Cl)SC1=S)C1CCS(=O)(=O)C1` (stereo not drawn), the “hERG current change (%, negative = inhibition) at 1uM” value amounted to 15%.

`CCn1cc(C(=O)N[C@H](C(=O)NC(C)(C)CO)C(C)C)c(=O)c2cc3c(cc21)OCO3`: the “hERG current change (%, negative = inhibition) at 1uM” value is listed as 14.3%.

Take `C[C@@H]1NC(=O)[C@@]2(C)[C@@H](c3ccccc3)[C@H]3COc4ccc(Cl)cc4[C@@H]3N2C1=O`: the “hERG current change (%, negative = inhibition) at 1uM” value was 14.1%.

Turning to `Cc1cc(C)nc(NC(=O)c2ccc(Cl)c([N+](=O)[O-])c2)n1`, the “hERG current change (%, negative = inhibition) at 1uM” value is 2.43%.

In the case of `C/C(=N\OCC(=O)NCC(F)(F)F)c1cc2ccccc2o1`, the “hERG current change (%, negative = inhibition) at 1uM” value amounted to 1.4%.

`O=C(Nc1ccc(F)cc1)c1ccc(S(=O)(=O)NCc2cccnc2)cc1`: the “hERG current change (%, negative = inhibition) at 1uM” value was determined as 3.07%.

As for `COc1cc(/C=C\C(=O)NCc2ccc3[nH]c(C)cc3c2)cc(OC)c1OC`, the “hERG current change (%, negative = inhibition) at 1uM” value is reported as 19.7%.

On to `CN1CCN(CCC(=O)N2c3ccccc3Sc3ccc(Cl)cc32)CC1`, for which the “hERG current change (%, negative = inhibition) at 1uM” value is on record as -14.2%.

For the molecule `CN(CC(=O)Nc1cccc(F)c1)C(=O)CCCN1C(=O)c2cccc3cccc(c23)C1=O`, the “hERG current change (%, negative = inhibition) at 1uM” value is on record as 6.25%.

Take `Cc1[nH]n(-c2ccccc2)c(=O)c1CCOC(=O)c1ccc(C(F)(F)F)cc1`: the “hERG current change (%, negative = inhibition) at 1uM” value was found to be 17.8%.

For the molecule `Cc1cc(NC(=O)CCCC(=O)O)nc(C)n1`, the “hERG current change (%, negative = inhibition) at 1uM” value is 2.11%.

As to `CC1CN(C(=O)c2ccc(Cl)c(S(=O)(=O)NCc3ccco3)c2)CC(C)O1` (stereo not drawn), the “hERG current change (%, negative = inhibition) at 1uM” value came out at 13.5%.

On to `CCOC(=O)[C@@]1(C#N)[C@@H]2C=CC(C(N)=O)=CN2[C@@H](C(N)=O)[C@@H]1c1cccc(Cl)c1`, for which the “hERG current change (%, negative = inhibition) at 1uM” value was found to be 1.97%.

Turning to `CN1C(=O)CSC1=S`, the “hERG current change (%, negative = inhibition) at 1uM” value is 13%.

With `CN(CC(=O)Nc1ccccc1Cl)C(=O)COC(=O)/C=C/c1ccccc1`, the “hERG current change (%, negative = inhibition) at 1uM” value was 8.3%.

As to `O=C(NNC(=O)C1CC(=O)N(Cc2ccccc2)C1)c1ccc(F)cc1` (stereo not drawn), the “hERG current change (%, negative = inhibition) at 1uM” value turned out to be 8.85%.

Turning to `CCOC(=O)N1CN(C(=O)OCC)CN(C(=O)OCC)C1`, the “hERG current change (%, negative = inhibition) at 1uM” value is on record as 12.3%.

Turning to `O=S(=O)(Cc1ccccc1)NCC1CCCO1` (stereo not drawn), the “hERG current change (%, negative = inhibition) at 1uM” value is reported as -0.43%.

On to `CSc1ccc(C2=CC(=O)C[C@H](c3ccc4c(c3)OCO4)C2)cc1`, for which the “hERG current change (%, negative = inhibition) at 1uM” value was 11%.

On to `Cc1ccc(Sc2c(C)nn(C(=O)CNS(=O)(=O)c3ccc(F)cc3)c2C)cc1`, for which the “hERG current change (%, negative = inhibition) at 1uM” value is 4.31%.

On to `Cc1ccc2[nH]c3nc(SCCN4CCOCC4)nnc3c2c1`, for which the “hERG current change (%, negative = inhibition) at 1uM” value was 11.8%.

In the case of `CCc1ccc(-c2cc(C)no2)cc1S(=O)(=O)Nc1cccc(CN2CCCC2)c1`, the “hERG current change (%, negative = inhibition) at 1uM” value is given as 2.74%.

Take `O=C1Nc2ccccc2C(=O)N2[C@H](c3ccc(F)cc3)[C@@H]3C(=O)N(Cc4ccccc4)C(=O)[C@@H]3[C@H]12`: the “hERG current change (%, negative = inhibition) at 1uM” value is on record as 4.1%.

As for `CC1(C)[N+]([O-])=C2C(=[N+]([O-])C1(C)C)c1ccccc1/C2=N\O`, the “hERG current change (%, negative = inhibition) at 1uM” value worked out at 8.31%.

`CC1(C)Cc2nc3sc(C(=O)NCCCO)c(N)c3cc2CS1`: the “hERG current change (%, negative = inhibition) at 1uM” value was found to be 10%.

As to `CN(Cc1ccccc1)C(=O)CSc1nc2c(c(C(F)(F)F)n1)CCc1ccccc1-2`, the “hERG current change (%, negative = inhibition) at 1uM” value came out at 15.7%.

Consider `CCCCN(Cc1cc2cccc(C)c2[nH]c1=O)S(C)(=O)=O`, for which the “hERG current change (%, negative = inhibition) at 1uM” value was 11.7%.

As to `Cc1ccc(C(=O)NCCN2CCCC2)cc1.Cl`, the “hERG current change (%, negative = inhibition) at 1uM” value was 3.56%.

With `Fc1cccc(Cl)c1CSc1ccc2nnc(-c3ccccn3)n2n1`, the “hERG current change (%, negative = inhibition) at 1uM” value came to 1.37%.

With `COc1cc(OC)cc(C(=O)NC(=S)N(Cc2ccccc2)C(C)C)c1`, the “hERG current change (%, negative = inhibition) at 1uM” value came out at 10.7%.

On to `O=C(c1ccc(OC2CCN(CCO)CC2)cc1)N1CCCC1`, for which the “hERG current change (%, negative = inhibition) at 1uM” value amounted to 10.7%.

On to `Cc1csc(Sc2ccc(C(=O)OCC(=O)Nc3ccc(F)cc3[N+](=O)[O-])cc2[N+](=O)[O-])n1`, for which the “hERG current change (%, negative = inhibition) at 1uM” value is reported as -0.541%.

Turning to `CN1CCc2c(sc(NC(=O)c3ccc(S(=O)(=O)N4CCCC4)cc3)c2C(N)=O)C1`, the “hERG current change (%, negative = inhibition) at 1uM” value was 7.47%.

As to `COc1cc(/C=C/C(=O)Nc2nnc(CC(C)C)s2)cc(OC)c1OC`, the “hERG current change (%, negative = inhibition) at 1uM” value is reported as -4.01%.

Consider `COc1cccc(NS(=O)(=O)c2cc3[nH]c(=O)c(=O)[nH]c3cc2C)c1`, for which the “hERG current change (%, negative = inhibition) at 1uM” value is listed as 20.3%.

As to `CCc1cc(=O)oc2cc(O[C@@H]3O[C@H](CO)[C@@H](O)[C@H](O)[C@H]3O)c(Cl)cc12`, the “hERG current change (%, negative = inhibition) at 1uM” value is 4.32%.

For the molecule `COC(=O)N1CCN(CCc2ccccc2)CC1`, the “hERG current change (%, negative = inhibition) at 1uM” value is reported as 8.11%.

Consider `CC(CCc1ccccc1)OS(N)(=O)=O` (stereo not drawn), for which the “hERG current change (%, negative = inhibition) at 1uM” value turned out to be 9.04%.

`CCN(CC)C(=O)Cn1cc(S(=O)(=O)CC(=O)NCc2ccc(C)cc2)c2ccccc21`: the “hERG current change (%, negative = inhibition) at 1uM” value was determined as 4.18%.

As for `O=[n+]1cc(-c2cc3ccccc3o2)n([O-])c2c1CCCC2`, the “hERG current change (%, negative = inhibition) at 1uM” value was found to be 8.6%.

Turning to `Cc1cc(NC(=O)CSc2nnc(-c3ccccc3C)n2C)no1`, the “hERG current change (%, negative = inhibition) at 1uM” value stood at 21.7%.

For `CC(C)N(Cc1cn(C)nc1-c1cccc(Cl)c1)Cc1nccn1C`, the “hERG current change (%, negative = inhibition) at 1uM” value is 10.2%.

Consider `Cc1ccc(NS(=O)(=O)c2cccc(C(=O)O)c2)cc1S(=O)(=O)N1CCCCC1`, for which the “hERG current change (%, negative = inhibition) at 1uM” value worked out at 8.67%.

Turning to `COC(=O)N1C(=O)[C@@](CC(C)C)(c2ccccc2)N1C(=O)OC`, the “hERG current change (%, negative = inhibition) at 1uM” value is given as -0.755%.

In the case of `CCCOC(=O)c1cccc(NC(=O)COc2ccc([N+](=O)[O-])cc2)c1`, the “hERG current change (%, negative = inhibition) at 1uM” value is -12.8%.

For the molecule `O=C(c1ccco1)N1CCC(c2nc3c(nnn3Cc3ccccc3Cl)c(=O)[nH]2)CC1`, the “hERG current change (%, negative = inhibition) at 1uM” value was 0.457%.

On to `CC(C)CN(CC(C)C)S(=O)(=O)N1CCC(C(=O)NCc2ccco2)CC1`, for which the “hERG current change (%, negative = inhibition) at 1uM” value was found to be 16.7%.

In the case of `O=C1CSC(c2cccc([N+](=O)[O-])c2)N1Cc1ccccc1` (stereo not drawn), the “hERG current change (%, negative = inhibition) at 1uM” value is recorded as 18.9%.

For the molecule `O=C(NCCCn1ccnc1)c1nc(Cn2cc(Br)cn2)no1`, the “hERG current change (%, negative = inhibition) at 1uM” value is given as 8.89%.
